Source: patent US8410064B2, “Classical cannabinoid metabolites and methods of use thereof” (priority 2009, dated 2013)

Tested on: human UGTs
Test: Glucuronidation activity across the tested human recombinant UGTs
Conditions: UGT1A7, UGT1A8, UGT1A9, UGT1A10

CCCCCc1cc(O)c2c(c1)OC(C)(C)c1ccc(C)cc1-2 [CBN, cannabinol]
variation in substrate binding (Km) among four UGTs: 17 fold
